# The source gives no read counts; variants with many changes may rest on few reads.
# B1: CPEB3 Ribozyme (parent)
# chain: UAACAGGGGGCCACAGCAGAAGCGUUCACGUCGCAGCCCCUGUCAGAUUCUGGUGAAUCUGCGAAUUCUGCUGUAUAUCUC
# Variants of: B1
# Assay: self-cleavage, relative activity (ratio to wild type); higher = more cleavage; in vitro, sequencing
# Summary of the method: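 After error-prone PCR and barcoding, CPEB3 ribozyme mutant libraries were transcribed with T7 RNA polymerase at 37°C for 5 hours, then given 15 min with DNase I before an EDTA stop, and they cleaved during both steps. Reverse transcription with template switching preceded Illumina sequencing. Relative activity divides a variant's cleaved/total read fraction by the unmutated ribozyme's. At least 5 reads were required per variant, and three batches were averaged.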
row,Variant,self-cleavage
1,G8A A18U A20G A64G,0.07
2,G7U G19A U25C U43C A64G,0.11
3,G8U C27G U67C U72A,0.08
4,G8A A45G A57G,0.35
5,G8A A13G A15G G55U C62U A64G,0.05
6,G8U A15U U41C A56G U66C U69C,0.05
7,G8A U25A C39A A65G,0.04
8,G8A A20G U25G U48C A56G,0.07
9,G9A A18U U69C C71A U80C,0.03
10,G8A U69A U80A,0.24
11,G8A A13G U25C,0.09
12,G9A A15G A18U A45C U67C U72A U74A,0.03
13,G8A A20G U25G A35U,0.04
14,G8U A57U C62A U67C,0.05
15,G8A U31C U69C U72C U78C,0.05
16,G8A U31C U67G,0.08
17,G7U U58C A64U,0.11
18,G8A C11A A13G,0.07
19,G9A U31C U60A,0.11
20,G8A U51A U80C,0.09
21,G8U A20U A35U A57G,0.12

row,Variant,self-cleavage
1,G9C A15G A64G,0.07
2,G9A U66C U69C,0.07
3,G8U A20U U25C A35U A47G U49C U72C,0.05
4,G9A G16A G24U U26G G52C U58C,0.04
5,G8A G24A U67A U69C U78C,0.07
6,G9A A13G A64G,0.07
7,G8U A35G U43C U54A,0.08
8,G9A C32G C40U U54A U78A,0.05
9,G8U A28G G55A,0.08
10,G8A C29U A35U U43C A47G U60A,0.04
11,G9A A21G U26C U54A,0.08
12,G9A C11A A57U,0.09
13,G8A A13G U60A,0.08
14,G8U U67C U72A,0.1
15,G9A A18U U26C A57G,0.11
16,G8U A28G U41A A56U A57G U69C,0.09
17,G8C G19A A28G U43C,0.06
18,G7U U26C A57G,0.06
19,G8A U69A U78C,0.07
20,G8A A13U A15G A20C A35G A57G U60A,0.05
21,G9A A18U C29U A45G U69C,0.12

row,Variant,self-cleavage
1,G9A C38A A45U G70U U72A,0.18
2,G9A C12U A57G U60A U78A,0.13
3,G9A A15G U54C U60A,0.08
4,G8A A15G A18U A57G,0.38
5,G9A U31A A45U U51C U67C,0.12
6,G7U G10A A15U G19U C23U,0.05
7,G9A G55C U60C U67G,0.06
8,G8A C27G U43C A47G U80C,0.07
9,G8C G22U A28U,0.07
10,G8A A21G U69C,0.24
11,G8C A15U G36A U41C C50A U60C,0.06
12,G8A U31C U66A U69A A77U,0.03
13,G8A A18G U26A U51A A56G U67C U78C,0.06
14,G7U U43C U48C A57G,0.08
15,G8A U26A U41C U54C A77U,0.05
16,G8A A20G U41C U48C U58C A65G U72C,0.05
17,G9C A13G A57U U69G A77U U78C,0.03
18,G9A A15G G53C U80C,0.38
19,G8A A35G U74C,0.49
20,G9A G10C U51C U60C U66A,0.12
21,G8U U26C A35G U74C U80C,0.08

row,Variant,self-cleavage
1,G9A A20G U25A C38A C62A U67C,0.04
2,G9A A45G U49C U54A,0.43
3,G8C A35G C37G U41C C59A U78C,0.25
4,G8U C12U A47G U51A,0.45
5,G8C G33A A57U,0.18
6,G8U U31A U51C U58C G61U U69A,0.04
7,G7U U43A G52A U80C,0.32
8,G9A U25C A35G A77G,0.09
9,G8C A15U A35G U54C,0.25
10,G8U G9A A13U A45U A57G,0.09
11,G9A C29A U31C U51C A75G,0.07
12,G9A A20U C38A C81U,0.05
13,G9A U41A A45U,0.2
14,G8A A47U A56G U78C,0.21
15,G8U A20G A28U U60C,0.31
16,G8A A13G A21G A35G U51C A57G U76C,0
17,G9A A35G U41C A65U A77G,0.14
18,G9A A28G A64G U67A A75G,0.03
19,G8U A28U C71U,0.06
20,G8C U41C A75U,0.09
21,G8A C27U U41A,0.29

# — the RNAGym collection of RNA variant scans (doi:10.1093/nar/gkz1192)
